Description: To investigate the protonation state of CF and BF in physiological media (pH = 7.4) and these compounds’ ability to form the proposed salt bridge with Lys197, the pKa values were determined by ^1H-NMR titration (see Supplementary Data File; Figures S1–S4). For determination of the pKa of the 5-hydroxy group, the shift of the singlet at 6.65 ppm, the triplet at 7.01 ppm for the 2′-hydroxyl group, and both double duplets at 7.42 and 7.59 ppm were used.
NMR experiments were performed at 298 K on a Bruker Avance III HD spectrometer operating at 600 MHz equipped with 5 mm triple resonance TCI (^1H, ^13C, ^15N) cryoprobes and shielded z-gradients. For the pKa value determination, 23 samples of 200 µM concentration of CF and BF were prepared with pH ranges from 2 to 13 (pH in 0.5 log unit steps) in 50 mM sodium phosphate, 100 mM sodium chloride, 10% (v/v) DMSO-d6. 1D ^1H-NMR experiments were performed using 128 or 256 scans for each sample, and the data were processed and analyzed by the TopSpin 3.2 software (TopSpin, v3.2, Bruker BioSpin GmbH, Rheinstetten, Germany). […] The pKa values were calculated using the chemical shifts of the protonated and unprotonated forms and their corresponding mole fraction values applying the Henderson–Hasselbalch equation as explained by Gift et al.. […]

## COc1cc(O)c2c(=O)c(OC)c(-c3cccc(Br)c3O)oc2c1OC [BF, bromflavonin]
  pKa1 (2′-OH): 6.74 ± 0.04
  pKa2 (5-OH): 10.30 ± 0.04

— article PMC9415896, “Total Synthesis of the Antimycobacterial Natural Product Chlorflavonin and Analogs via a Late-Stage Ruthenium(II)-Catalyzed ortho-C(sp^2)-H-Hydroxylation” (Pharmaceuticals, 2022)
